Measured values: patent US20250101074A1 (Affibody, published 2025)
Positions count from the first letter of the chain named. Names may count otherwise. Where two headings read alike, the source gives them in different places.

Columns and labels:
human IL-17A [1] = biological target: T1, human IL-17A (human, UniProt Q16552 20-155, limits assumed); test: cell-based or functional assay
T1 sequence: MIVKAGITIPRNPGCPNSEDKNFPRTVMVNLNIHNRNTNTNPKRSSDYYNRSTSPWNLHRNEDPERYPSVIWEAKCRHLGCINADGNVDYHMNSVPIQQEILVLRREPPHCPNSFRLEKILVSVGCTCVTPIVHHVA

human IL-17A [2] = biological target: T1, human IL-17A; test: cell-based or functional assay; remark: listed apart in the source
human IL-17A [3] = biological target: T1, human IL-17A; test: SPR (Biacore), immobilized hIL-17A, 1:1 model
Procedure: One flow cell surface on the chip was activated and deactivated for use as blank during analyte injections. In the kinetic experiment, HBS-EP was used as running buffer and the flow rate was 50 μl/min. […] Kinetic constants were calculated from the sensorgrams using the Langmuir 1:1 model of BiaEvaluation software 4.1 (GE Healthcare).

human IL-17A [4] = biological target: T1, human IL-17A; test: cell-based or functional assay; remark: listed apart in the source
human IL-17A [5] = biological target: T1, human IL-17A; test: KinExA, ZAZ in complex with HSA, IL-17A as titrant
human IL-17A [6] = biological target: T1, human IL-17A; test: ELISA, captured periplasmic Z-ABD, titrated b-hIL-17A

B1: Z06455-ABD (designed binder)
chain: MGSSLQVDAKYAKEMDNAQWEIWLLPNLTWAQQHAFIGKLIDDPSQSSELLSEAKKLNDSQAPKVDSSLAEAKEAANAELDSYGVSDFYKRLIDKAKTVEGVEALKDAILAALP
IC50, IL-17A induced IL-6 production, NHDF cells, with HSA (human IL-17A [1]): 15000 pM

B2: His6-Z12481 (designed binder)
chain: MGSSHHHHHHLQVDAKYAKEADDAAVEIADLPNLTWDQWWAFILKLRDDPSQSSELLSEAKKLNDSQAPKVD
IC50, IL-17A induced IL-6 production, NHDF cells (human IL-17A [2]): 3000 pM | Kd (human IL-17A [3]): 1700 pM | koff (human IL-17A [3]): 0.00089 s⁻¹ | kon (human IL-17A [3]): 520000 M⁻¹ s⁻¹

B3: His6-Z12498 (designed binder)
chain: B2 chain with V26Y, D30S, L44G
IC50, IL-17A induced IL-6 production, NHDF cells (human IL-17A [2]): 11000 pM | Kd (human IL-17A [3]): 3800 pM | koff (human IL-17A [3]): 0.0023 s⁻¹ | kon (human IL-17A [3]): 600000 M⁻¹ s⁻¹

B4: His6-Z12522 (designed binder)
chain: B2 chain with D23R, L44E
IC50, IL-17A induced IL-6 production, NHDF cells (human IL-17A [2]): 10000 pM | Kd (human IL-17A [3]): 6200 pM | koff (human IL-17A [3]): 0.0044 s⁻¹ | kon (human IL-17A [3]): 710000 M⁻¹ s⁻¹

B5: His6-Z12634 (designed binder)
chain: B2 chain with D23R, W40Y, L44E
IC50, IL-17A induced IL-6 production, NHDF cells (human IL-17A [2]): 9800 pM | Kd (human IL-17A [3]): 6300 pM | koff (human IL-17A [3]): 0.0043 s⁻¹ | kon (human IL-17A [3]): 690000 M⁻¹ s⁻¹

B6: ZAZ3174 (designed binder)
chain: VDAKYAKEADQAAMEIATLPNLTWDQWFAFIAKLRDDPSQSSELLSEAKKLNDSQAPKGAPGGGGSGGGGSGGGGSGGGGSTSLAEAKEAANAELDSYGVSDFYKRLIDKAKTVEGVEALKDAILAALPGTGGGGSGGGGSGGGGSGGGGSPRVDAKYAKEADQAAMEIATLPNLTWDQWFAFIAKLRDDPSQSSELLSEAKKLNDSQAPK
IC50, IL-17A induced IL-6 production, NHDF cells, with HSA (human IL-17A [4]): 630 pM

B7: ZAZ3175 (designed binder)
chain: VDAKYAKEADQAAMEIATLPNLTWDQWFAFIAKLRDDPSQSSELLSEAKKLNDSQAPKGAPGGGGSGGGGSGGGGSTSLAEAKEAANAELDSYGVSDFYKRLIDKAKTVEGVEALKDAILAALPGTGGGGSGGGGSGGGGSPRVDAKYAKEADQAAMEIATLPNLTWDQWFAFIAKLRDDPSQSSELLSEAKKLNDSQAPK
IC50, IL-17A induced IL-6 production, NHDF cells, with HSA (human IL-17A [4]): 560 pM

B8: ZAZ3176 (designed binder)
chain: VDAKYAKEADQAAMEIATLPNLTWDQWFAFIAKLRDDPSQSSELLSEAKKLNDSQAPKGAPGGGGSGGGGSTSLAEAKEAANAELDSYGVSDFYKRLIDKAKTVEGVEALKDAILAALPGTGGGGSGGGGSPRVDAKYAKEADQAAMEIATLPNLTWDQWFAFIAKLRDDPSQSSELLSEAKKLNDSQAPK
IC50, IL-17A induced IL-6 production, NHDF cells, with HSA (human IL-17A [4]): 500 pM

B9: ZAZ3221 (designed binder)
chain: B6 chain with Q11D, M14V, T18S, F28Y, A32Q, Q164D, M167V, T171S, F181Y, A185Q
IC50, IL-17A induced IL-6 production, NHDF cells, with HSA (human IL-17A [4]): 390 pM

B10: ZAZ3234 (designed binder)
chain: VDAKYAKEADQAAMEIATLPNLTWDQWFAFIAKLRDDPSQSSELLSEAKKLNDSQAPKVDGSLAEAKEAANAELDSYGVSDFYKRLIDKAKTVEGVEALKDAILAALPGTGGGGSPRVDAKYAKEADQAAMEIATLPNLTWDQWFAFIAKLRDDPSQSSELLSEAKKLNDSQAPK
IC50, IL-17A induced IL-6 production, NHDF cells, with HSA (human IL-17A [4]): 660 pM

B11: ZAZ3235 (designed binder)
chain: VDAKYAKEADQAAMEIATLPNLTWDQWFAFIAKLRDDPSQSSELLSEAKKLNDSQAPKVDGSLAEAKEAANAELDSYGVSDFYKRLIDKAKTVEGVEALKDAILAALPGTGGGGSGGGGSPRVDAKYAKEADQAAMEIATLPNLTWDQWFAFIAKLRDDPSQSSELLSEAKKLNDSQAPK
IC50, IL-17A induced IL-6 production, NHDF cells, with HSA (human IL-17A [4]): 600 pM

B12: ZAZ3236 (designed binder)
chain: VDAKYAKEADQAAMEIATLPNLTWDQWFAFIAKLRDDPSQSSELLSEAKKLNDSQAPKGAPGGGGSTSLAEAKEAANAELDSYGVSDFYKRLIDKAKTVEGVEALKDAILAALPGTGGGGSPRVDAKYAKEADQAAMEIATLPNLTWDQWFAFIAKLRDDPSQSSELLSEAKKLNDSQAPK
IC50, IL-17A induced IL-6 production, NHDF cells, with HSA (human IL-17A [4]): 540 pM

B13: ZAZ3237 (designed binder)
chain: VDAKYAKEADQAAMEIATLPNLTWDQWFAFIAKLRDDPSQSSELLSEAKKLNDSQAPKGAPGGGGSTSLAEAKEAANAELDSYGVSDFYKRLIDKAKTVEGVEALKDAILAALPGTGGGGSGGGGSPRVDAKYAKEADQAAMEIATLPNLTWDQWFAFIAKLRDDPSQSSELLSEAKKLNDSQAPK
IC50, IL-17A induced IL-6 production, NHDF cells, with HSA (human IL-17A [4]): 490 pM

B14: ZAZ3269 (designed binder)
chain: AEAKYAKEADDAAVEIADLPNLTWDQWYAFISKLRDDPSQSSELLSEAKKLNDSQAPKVDGSLAEAKEAANAELDSYGVSDFYKRLIDKAKTVEGVEALKDAILAALPGTGGGGSPKAEAKYAKEADDAAVEIADLPNLTWDQWYAFISKLRDDPSQSSELLSEAKKLNDSQAPK
IC50, IL-17A induced IL-6 production, NHDF cells, with HSA (human IL-17A [4]): 420 pM

B15: ZAZ3270 (designed binder)
chain: AEAKYAKEADDAAVEIADLPNLTWDQWYAFISKLRDDPSQSSELLSEAKKLNDSQAPKASGSLAEAKEAANAELDSYGVSDFYKRLIDKAKTVEGVEALKDAILAALPGTGGGGSAEAKYAKEADDAAVEIADLPNLTWDQWYAFISKLRDDPSQSSELLSEAKKLNDSQAPK
IC50, IL-17A induced IL-6 production, NHDF cells, with HSA (human IL-17A [4]): 410 pM

B16: ZAZ3422 (designed binder)
chain: B15 chain with D18S, D25A, S32Q, D133S, D140A, S147Q
notes: Z-ABD-Z polypeptide; D25A in both Z14253 moieties of ZAZ3363; also called Z15166-[ASGS]-PP013-[GT-G4S]-Z15166
IC50, IL-17A induced IL-6 production, NHDF cells; 0 weeks at 40 C (human IL-17A [4]): 380 pM | IC50, IL-17A induced IL-6 production, NHDF cells; after 2 weeks at 40 C (human IL-17A [4]): 450 pM | IC50, IL-17A induced IL-6 production, NHDF cells; after 4 weeks at 40 C (human IL-17A [4]): 420 pM | Kd (human IL-17A [5]): 0.0785 pM | koff (human IL-17A [5]): 6.08e-07 s⁻¹ | kon (human IL-17A [5]): 7.8e+06 M⁻¹ s⁻¹

B17: Z06260-ABD (designed binder)
chain: B1 chain with M15H, N17Y, Q19W, W20F, L24A, A31D, Q33A, H34T, G38R, I41N
IC50, IL-17A induced IL-6 production, NHDF cells, with HSA (human IL-17A [1]): 8000 pM

B18: His6-Z06282 (designed binder)
chain: B2 chain with D23Q, V26M, D30T, W40F, L44A
IC50, IL-17A induced IL-6 production, NHDF cells, with HSA (human IL-17A [1]): 16000 pM

B19: Z12059, periplasmic ABD fusion (designed binder)
chain: AQHDEALEVDAKYAKEADDAAYEIAFLPNLTWDQWFAFISKLRDDPSQSSELLSEAKKLNDSQAPKVDYVLAEAKVLANRELDKYGVSDYYKNLINNAKTVEGVKALIDEILAALPYVPG
notes: domain: GA3
EC50 (human IL-17A [6]): 530 pM

B20: Z12060, periplasmic ABD fusion (designed binder)
chain: B19 chain with D19A, Y22V, F26E, F36W, S40N
notes: domain: GA3
EC50 (human IL-17A [6]): 510 pM

B21: Z12073, periplasmic ABD fusion (designed binder)
chain: B19 chain with Y22V, F26D, F36Y, S40T
notes: domain: GA3
EC50 (human IL-17A [6]): 430 pM

B22: Z12078, periplasmic ABD fusion (designed binder)
chain: B19 chain with F26Y, S40T
notes: domain: GA3
EC50 (human IL-17A [6]): 520 pM

B23: Z12081, periplasmic ABD fusion (designed binder)
chain: B19 chain with Y22L, F26D, F36W
notes: domain: GA3
EC50 (human IL-17A [6]): 560 pM

B24: Z12115, periplasmic ABD fusion (designed binder)
chain: B19 chain with F26Y, F36Y, S40Q
notes: domain: GA3
EC50 (human IL-17A [6]): 420 pM

B25: Z12163, periplasmic ABD fusion (designed binder)
chain: B19 chain with D19Q, S40N
notes: domain: GA3
EC50 (human IL-17A [6]): 500 pM

B26: Z12180, periplasmic ABD fusion (designed binder)
chain: B19 chain with Y22V, F26A, F36W, S40G
notes: domain: GA3
EC50 (human IL-17A [6]): 370 pM

B27: Z12211, periplasmic ABD fusion (designed binder)
chain: B19 chain with D19E, Y22V, F26D, F36W, S40N
notes: domain: GA3
EC50 (human IL-17A [6]): 460 pM

B28: Z12212, periplasmic ABD fusion (designed binder)
chain: B19 chain with Y22V, F26L, F36Y, S40N
notes: domain: GA3
EC50 (human IL-17A [6]): 780 pM

B29: Z12256, periplasmic ABD fusion (designed binder)
chain: B19 chain with Y22V, F26D, F36Y, S40A
notes: domain: GA3
EC50 (human IL-17A [6]): 470 pM

B30: Z12264, periplasmic ABD fusion (designed binder)
chain: B19 chain with F36W, S40Q
notes: domain: GA3
EC50 (human IL-17A [6]): 390 pM

B31: Z12275, periplasmic ABD fusion (designed binder)
chain: B19 chain with Y22V, F26D, S40N
notes: domain: GA3
EC50 (human IL-17A [6]): 420 pM

B32: Z12285, periplasmic ABD fusion (designed binder)
chain: B19 chain with D19N, Y22L, F26N, F36W, S40T
notes: domain: GA3
EC50 (human IL-17A [6]): 910 pM

B33: Z12439, periplasmic ABD fusion (designed binder)
chain: B19 chain with D19M, Y22V, F26E, D33E, F36W, S40G
notes: domain: GA3
EC50 (human IL-17A [6]): 610 pM
